Measurements taken from PubChem BioAssay AID1347073 (National Center for Advancing Translational Sciences (NCATS), 2019).
The campaign covered roughly 45,000 compounds. About 200 (0.44%) were called active. Roughly 7% stayed inconclusive and do not appear here. The call rests on the fitted dose curve; in most records, active means well fitted activation curve with a large enough effect; inconclusive means small, poorly fitted or top-dose-only effect; inactive means no such curve, though single readings can be large or run the other way. The list shows a part of the results.

assay: qHTS of TDP-43 Inhibitors: NCGC Sytravon Library Screen; conditions: yeast TDP-43 toxicity rescue, BacTiter-Glo growth, 24 h; series mostly up to 46.1 µM; growth rescue (activation): at the top concentration; further: 0% is about no effect; nearly all actives have a fitted effect of over 55% in size
Summary of the method: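 TDP-43-expressing yeast, pregrown in raffinose, seeded at OD600 0.02 in galactose medium with compound for 24 hr at 30 deg C. Growth read by BacTiter-Glo luminescence, so rescue of toxicity appears as activation.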

Structure (SMILES) | growth rescue (activation)
CN(C)C(=O)c1cccn(Cc2cccc(C(F)(F)F)c2)c1=O | inactive: 0.493%
CC(=O)Nc1cccc2c1C(=O)N(c1ccccc1OC(C)=O)C2=O | inactive: -3.55%
Cc1ccc(NC(=O)CSc2nnnn2C2CC2)cc1S(=O)(=O)N1CCOCC1 | inactive: 0.439%
COc1cc2ccccc2cc1C(=O)NC(=S)Nc1cccc(C(=O)O)c1 | inactive: 4.83%
CCOc1cc(C(=O)Nc2ccc(S(=O)(=O)Nc3nnc(CC)s3)cc2)cc(OCC)c1OCC | inactive: -13.9%
CNC(=S)N/N=C(\C)c1ccc2c(c1)OCCO2 | inactive: 40.9%
COc1cc(F)ccc1-c1csc(C(O)c2ccc(F)c(F)c2)n1 (stereo not drawn) | inactive: -73.3%
N#Cc1cc(C(=O)c2ccccc2OCC(=O)Nc2ccccc2Cl)cn(C2CCCCC2)c1=O | inactive: 5.17%
CCOC(=O)N1CCN(C(=O)C2CCN(CC3CCCCC3)CC2)CC1 | inactive: 11.6%
Oc1ccccc1C=NC1CCCCC1N=Cc1ccccc1O (stereo not drawn) | inactive: 1.52%
CCOC(=O)c1c(C)n(S(=O)(=O)c2ccc(C)cc2C)c2ccc(NS(=O)(=O)c3ccc(C)cc3C)cc12 | inactive: -6.22%
O=C(COC(=O)c1ccccc1)Nc1ccc(Cl)cn1 | inactive: -14.5%
CC(=O)Nc1ccc(C(=O)OCC(=O)c2cccc([N+](=O)[O-])c2)cc1 | inactive: 6.57%
CCCCCOC(=O)C1C(c2ccccc2)C(C(=O)O)C1c1ccccc1 (stereo not drawn) | inactive: 19.2%
Cc1cc(C(=O)N2CCCC(C(=O)c3cc(F)ccc3F)C2)c(C)o1 (stereo not drawn) | inactive: 26.7%
Cc1[nH]c2ccccc2c1C(=O)COC(=O)Cn1c(C(F)(F)F)nc2ccccc21 | inactive: 8.15%
COc1ccc(CCNC(=O)CCCc2ccccc2)cc1OC | inactive: 8.62%
O=C(NC1C2CC3CC(C2)CC1C3)c1ccc(Br)o1 (stereo not drawn) | inactive: -19.8%
COc1cc(OC)c(OC)cc1/C=N/NC(=O)c1cnccn1 | inactive: 0.0341%
CCCOc1ccc(/C=N/Nc2ccccc2[N+](=O)[O-])c(O)c1 | inactive: -2.23%
O=C(CN(C(=O)CCC(=O)Nc1nccs1)c1cccc(F)c1)NCc1ccc2c(c1)OCO2 | inactive: -12.8%
CC(=O)N1N=C(C)CC1c1ccc(OCc2ccccc2)cc1 (stereo not drawn) | inactive: -15.2%

Structure (SMILES) | growth rescue (activation)
Cc1onc(-c2ccccc2)c1C(=O)N1CCN(S(=O)(=O)c2ccc(Cl)cc2)CC1 | inactive: 15.5%
O=C(NCc1ccc(Cl)cc1)c1ccc(COCC(F)(F)F)o1 | inactive: 24.7%
COc1ccccc1CCc1nnc(CCC(=O)NC(C)Cn2nc(C)cc2C)o1 (stereo not drawn) | inactive: 12.5%
NNc1cc(C(=O)O)ccc1Cl | inactive: 14.8%
CCCCN(CCCC)CCCNC(=O)c1ccc2nc(-c3ccccc3NC(C)=O)c(=O)[nH]c2c1 | inactive: -4.92%
CNC(=O)NC(=O)C(C)OC(=O)c1ccc(Cl)c(S(=O)(=O)Nc2ccc(F)cc2)c1 (stereo not drawn) | inactive: 14.7%
CC1(C(=O)O)CCN1C(=O)c1cccc(C(F)(F)F)c1 (stereo not drawn) | inactive: 5.92%
CCc1ccc2nc(Nc3ccc(OC)cc3OC)c(C#N)cc2c1 | inactive: -33.7%
CC(=O)c1cccc(NC(=O)C(C)OC(=O)C2=NNC(=O)CC2)c1 (stereo not drawn) | inactive: 13.2%
Cc1cc(C)cc(N(CC(=O)NCCSCc2ccco2)S(C)(=O)=O)c1 | inactive: -12.8%
O=C(CCc1nc2ccccc2s1)Nc1cccnc1 | inactive: -0.572%
Cc1ccc(/C=N/Nc2cn[nH]c(=O)n2)o1 | inactive: 13.5%
COc1ccc(NC(=O)c2cc3nc(-c4ccc(Cl)c(Cl)c4)cc(C(F)(F)F)n3n2)c(OC)c1 | inactive: 7.77%
CCC(C)NC(=S)NNC(=O)c1ccncc1 (stereo not drawn) | inactive: -5.21%
COc1ccccc1N(CC(O)CN1CCC(C)CC1)S(=O)(=O)c1ccccc1 (stereo not drawn) | inactive: 9.29%
CCOC(=O)c1c(C)[nH]c(C)c1C(=O)COC(=O)C1CC(=O)N(CCc2ccccc2)C1 (stereo not drawn) | inactive: 0.217%
COc1cc(C(=O)N2CCN(C(=O)COc3ccc4ccccc4c3)CC2)cc(OC)c1OC | inactive: 16.3%
COc1ccc(OC)c(-n2c(-c3ccn[nH]3)n[nH]c2=S)c1 | inactive: 1.3%
O=C(O)[C@@H]1CC(O)CN1C(=O)CCc1c[nH]c2ccccc12 (stereo partly drawn) | inactive: 0.557%
COC(=O)c1ccc(OCC(O)CNCC(c2ccc(OC)cc2)N(C)C)c(OC)c1 (stereo not drawn) | inactive: 4.55%
CC1=NN(c2nc(-c3ccc(C)cc3)cs2)C(=O)C1N=Nc1ccc2ccccc2c1 (stereo not drawn) | inactive: -6.25%
O=C(NC1CCN(C(=O)NCc2ccccc2)CC1)c1cccc(F)c1 | inactive: 5.86%

Structure (SMILES) | growth rescue (activation)
CCn1c(C)nc2cc(C(=O)N/N=C/c3cccc(OC)c3O)ccc21 | inactive: 4.71%
COC(=O)c1cc(OC)c(OC)c(OC)c1[N+](=O)[O-] | inactive: 20.3%
N#Cc1ccc(Cn2c(-c3ccc(F)cc3)noc2=O)cc1 | inactive: 15.1%
COc1ccc(N(CC(=O)NC2CCS(=O)(=O)C2)S(=O)(=O)c2cc(C)ccc2C)cc1 (stereo not drawn) | inactive: 11.8%
COc1ccc(NC(=O)c2ccco2)cc1S(=O)(=O)N1CCOCC1 | inactive: -0.381%
CC(C)(C)c1[nH]nc2c1C(c1ccncc1)C(C#N)=C(N)O2 (stereo not drawn) | inactive: 25%
COc1cccc(-c2ccc(NC(=O)C3CCCN(Cc4cnc(C)s4)C3)cc2)c1 (stereo not drawn) | inactive: 0.987%
O=C(CN1CCCCCC1)Nc1ccc(Cl)cc1F | inactive: -15.4%
CCC1CCCCN1CC(O)COCc1cccc(OC)c1 (stereo not drawn) | inactive: -1.43%
COc1cc(NC(=O)Nc2nc(C(N)Cc3ccc(C(F)(F)F)cc3)cs2)cc(OC)c1OC (stereo not drawn) | inactive: 3.74%
O=C(O)CCn1c(=O)c2cccn2c2cccnc21 | inactive: 4.91%
O=C1NC2=C(C(=O)OC2)C(c2ccc(OC(F)(F)F)cc2)N1 (stereo not drawn) | inactive: 5.95%
O=C(Cn1cnc2ccccc2c1=O)c1ccc(Br)cc1 | inactive: -35.2%
COc1cccc(NC(=O)Nc2ccc3nc(C)c(C)nc3c2)c1 | inactive: 9.01%
N#Cc1ccccc1Cn1c(=O)n(-c2cccc(C(F)(F)F)c2)c(=O)c2sccc21 | inactive: 13.9%
O=C(C1CCCN(CCCc2ccccc2)C1)N1CCCCCC1 (stereo not drawn) | inactive: -15.5%
O=C(NCc1ccccc1Cl)C1CCCN(C(=O)Nc2ccc(F)cc2)C1 (stereo not drawn) | inactive: 8.42%
Cc1ccc(CNC(=O)COC(=O)C2CCC2)cc1 | inactive: 5.79%
Cc1sc(NC(=O)C2C3CCC(O3)C2C(=O)O)nc1-c1ccc(CC(C)C)cc1 (stereo not drawn) | inactive: 35.9%
Cc1cccc(-n2ncc3c(=O)[nH]c(SCC(=O)Nc4cc(C)on4)nc32)c1 | inactive: 11%
O=C1CC(c2ccc(Cl)cc2)CC(O)=C1C=NCCO (stereo not drawn) | inactive: 13.9%
COc1ccc(OCCC(=O)OCC(=O)NC2CCCCC2)cc1 | inactive: 4.91%

Structure (SMILES) | growth rescue (activation)
Cc1ccc2nc(SCC(=O)NNC(=O)c3ccccc3)[nH]c2c1 | inactive: -0.56%
O=C(NCCCO)c1ccc2nc(-c3ccco3)c(-c3ccco3)nc2c1 | inactive: -1.34%
CC1CCCC(NC(=O)CN2C(=O)NC(C)(c3cc(F)ccc3F)C2=O)C1C (stereo not drawn) | inactive: 6.71%
Cc1nc(SCC(=O)NC(=O)NCCC(C)C)c2c(-c3cccs3)csc2n1 | inactive: -14.2%
COc1ccc(C(=O)N/N=C(\C)CC(=O)N2CCN(C=O)CC2)cc1 | inactive: -1.18%
Cc1cccc(N(CC(=O)NCc2ccco2)C(=O)CNS(=O)(=O)c2ccc(F)cc2)c1 | inactive: 14.2%
O=C1c2ccccc2C(=O)N1CCCn1ccnc1 | inactive: -4.93%
Cc1cccc(CC(=O)Nc2ccc(C(=O)N3CCOCC3)cc2)c1 | inactive: 9.13%
Cc1ccc(-c2nc(C=Nc3ccc(O)cc3)c(O)o2)cc1 | inactive: -0.461%
CC(C)NC(=O)COC(=O)c1ccccc1CSC1=NCCS1 | inactive: 15.5%
Cc1cc(C)cc(C(O)c2ncc(-c3cccc(C(F)(F)F)c3)[nH]2)c1 (stereo not drawn) | inactive: 9.47%
C=Cc1ccc(Cn2nc(-c3ccc(C)cc3)ccc2=O)cc1 | inactive: 22.1%
O=c1[nH]c(=S)[nH]cc1S(=O)(=O)c1cccc(Cl)c1 | inactive: -0.986%
O=C(CSCc1ccc(F)cc1)Nc1ccccc1C(=O)N1CCOCC1 | inactive: 18.2%
Cc1nc(NC(=O)c2cc3ccccc3o2)ccc1Br | inactive: -1.35%
CCOC(=O)C1CCN(Cc2oc(CO)cc(=O)c2O)CC1 | inactive: 12.6%
Cc1cc(C)cc(NC(=S)N(Cc2ccc(Cl)cc2)Cc2ccc(C(=O)O)cc2)c1 | inactive: -26.1%
CCNC(=O)NCCNC(=O)c1cc(OCC(F)(F)F)ccc1OCC(F)(F)F | inactive: 1.32%
CCOC(=O)CCCNC(=O)COC(=O)[C@@H]1CCCN1S(=O)(=O)c1ccc(Cl)cc1 | inactive: 1.26%
Cc1ccc(S(=O)(=O)N(C)CC(=O)NCCCn2ccnc2)cc1 | inactive: -17.1%
COc1ccc(NC(=O)COc2ccc(C)cc2)c([N+](=O)[O-])c1 | inactive: 1.09%
Cc1ccc(C(=O)NCCCNC(=O)c2ccc(Cl)cc2)cn1 | inactive: -50.5%

Structure (SMILES) | growth rescue (activation)
CCC(=O)NC(c1ccccc1Cl)c1c(O)ccc2ccccc12 (stereo not drawn) | inactive: -5.07%
Cc1cc(=O)n2nc(N3CCCC(C(=O)NCCC4=CCCCC4)C3)sc2n1 (stereo not drawn) | inactive: 23.4%
COCCN1CCN(C(=O)c2cc(COc3ccc(F)c(F)c3)on2)CC1 | inactive: 16.6%
Cc1ccc(Nc2n[nH]c(C)c2[N+](=O)[O-])cc1C | inactive: 25.7%
CNC(=O)NCCN1CCCC1=O | inactive: -28%
Nc1ccc(-c2nc3c(Cl)c(N)ccc3[nH]2)cc1 | inactive: 5.02%
NS(=O)(=O)c1ccc(CCNC(=S)Nc2ccc(F)cc2)cc1 | inactive: 10.5%
COc1cc(OC)c(S(=O)(=O)N2CCCCC2)cc1S(=O)(=O)N1CCCCC1 | inactive: 10.9%
Cc1ccc(S(=O)(=O)N(C)c2c(C)ccc(S(=O)(=O)N3CCN(C)CC3)c2C)cc1 | inactive: 14.4%
O=C(c1cc(-c2ccc(O)cc2)on1)N1CCCC1 | inactive: 9.01%
Cc1cccc(C(=O)Nc2cc(S(=O)(=O)N3CCOCC3)ccc2N2CCCC2)c1 | inactive: 13.1%
CC(=O)c1ccc(S(=O)(=O)N2CCN(CC#N)CC2)cc1 | inactive: 13%
CCOC(=O)c1ccccc1NC(=O)Cc1ccc(S(=O)(=O)N2CCCC2)s1 | inactive: 6.75%
CC1=C(C(=O)OCCOc2ccccc2)C(c2ccsc2)NC(=O)N1C (stereo not drawn) | inactive: 19%
O=C(O)Cn1cc(C(=O)C(F)(F)F)c2ccccc21 | inactive: 6.7%
CN(C)/N=C1\CCS(=O)(=O)c2sccc21 | inactive: -7.41%
CC1(C)CC(=O)C=C(NCCN2CCN(C(=S)NC3CCCCC3)CC2)C1 | inactive: -7.26%
O=C(NCCN1CCCCC1)/C(=C/c1ccco1)NC(=O)c1ccccc1 | inactive: -15.2%
CCOc1cc(/C=C2\SC(N3CCCC(C)C3)=NC2=O)ccc1O (stereo not drawn) | inactive: 8.02%
O=C(CN1CCOCC1)Nc1ccc(NC(=O)c2ccccc2F)cc1 | inactive: 12.8%
